Experimental data from the antibiotic and cytotoxicity screens of Wong et al. (2023).
Some of the results follow.

Legend:
[1] = test system: HSkMC (human skeletal muscle cells); assay: cytotoxicity call (relative viability < 0.9); conditions: 10 µM
[2] = test system: HepG2; assay: cytotoxicity call (relative viability < 0.9); conditions: 10 µM
[3] = test system: S. aureus RN4220; assay: growth inhibition call (relative growth <= 0.2); conditions: 50 µM

Structure (SMILES) | cytotoxicity call [1] | cytotoxicity call [2] | growth inhibition call [3]
C[C@@H]1CN([C@H](C)CO)C(=O)c2cc(NC(=O)c3ccncc3)ccc2O[C@@H]1CN(C)Cc1ccc(Oc2ccccc2)cc1 | inactive | inactive | inactive
COc1cccc(S(=O)(=O)Nc2ccc3c(c2)C(=O)N(C)C[C@H](OC)[C@H](C)CN(C(=O)Cc2cccnc2)[C@@H](C)CO3)c1 | inactive | inactive | inactive
O=[N+]([O-])c1ccc(O)c2ncccc12 | inactive | active | inactive
CN(C)CCCCNC(=O)[C@H]1C[C@H]2C(=O)N[C@@H](Cc3ccccc3)C(=O)N2[C@H]1c1cccc(OCCO)c1 | inactive | inactive | inactive
C[C@H](CO)N1C[C@H](C)[C@H](CN(C)C(=O)c2ccccc2F)Oc2cc(C#CCN(C)C)ccc2S1(=O)=O | inactive | inactive | inactive
COC(=O)CCCCCCC(=O)Nc1ccc([C@H]2O[C@@H](CSc3nc4ccccc4s3)C[C@H](c3ccccc3)O2)cc1 | inactive | inactive | inactive
CS(=O)(=O)N1[C@@H]2Cn3c(ccc(-c4cccc(F)c4)c3=O)[C@H]1[C@@H](C(=O)N1CCOCC1)[C@@H]2CO | inactive | inactive | inactive
C[C@H]1CN([C@@H](C)CO)C(=O)Cc2cc(NC(=O)C3CCCCC3)ccc2O[C@@H]1CN(C)Cc1ccc(C(F)(F)F)cc1 | inactive | active | inactive
Cc1ccc(S(=O)(=O)N(C)C[C@@H]2OCCCC[C@@H](C)Oc3ccc(NS(=O)(=O)c4ccc(Cl)cc4)cc3C(=O)N([C@@H](C)CO)C[C@@H]2C)cc1 | inactive | inactive | inactive
COc1ccc(COC[C@]23N=C4SCc5ccccc5CN4[C@H](c4ccccc4O2)[C@H]3COC(=O)c2ccccc2)cc1 | inactive | inactive | inactive
O=C(NCCO[N+](=O)[O-])c1cccnc1 | inactive | active | inactive
Cc1noc(C)c1NC(=O)Nc1ccc2c(c1)C(=O)N([C@H](C)CO)C[C@H](C)[C@H](CN(C)C(=O)NC1CCCCC1)OCCCC[C@H](C)O2 | inactive | inactive | inactive
COc1ccc(NC(=O)N(C)C[C@H]2OCCCC[C@@H](C)Oc3ccc(NS(=O)(=O)c4cccs4)cc3C(=O)N([C@@H](C)CO)C[C@@H]2C)cc1 | inactive | inactive | inactive
COc1ccc(S(=O)(=O)N2C[C@H](O)COC[C@@H]3O[C@H](CC(=O)NCCN4CCCCC4)CC[C@H]32)cc1 | inactive | inactive | inactive
C[C@@H]1CN([C@@H](C)CO)C(=O)c2cc(NC(=O)Nc3cccc4ccccc34)ccc2O[C@@H](C)CCCCO[C@@H]1CN(C)S(=O)(=O)c1ccc(F)cc1 | inactive | inactive | inactive
Cl.NC1=NCC2c3ccccc3Cc3ccccc3N12 (stereo not given) | inactive | inactive | inactive
C[C@H]1CN([C@@H](C)CO)C(=O)c2cc(NC(=O)Nc3cccc4ccccc34)ccc2O[C@@H]1CN(C)Cc1ccc2c(c1)OCO2 | inactive | inactive | inactive
C[C@@H]1CN([C@@H](C)CO)C(=O)c2cccc(NC(=O)c3cnccn3)c2O[C@H]1CN(C)C(=O)NC1CCCCC1 | inactive | inactive | inactive
O=C(C[C@H]1C[C@@H]2c3cc(NS(=O)(=O)c4ccc(F)cc4)ccc3O[C@@H]2[C@@H](CO)O1)NCCN1CCCCC1 | inactive | inactive | inactive
O=C1c2ccccc2[C@@]2(Cc3ccccc3N(CCN3CCOCC3)C2=O)[C@H](c2ccc(CO)cc2)N1Cc1ccccc1Cl | inactive | inactive | inactive
C[C@@H]1CCCCO[C@H](CN(C)CC2CCCCC2)[C@H](C)CN([C@@H](C)CO)C(=O)c2cc(NC(=O)CCC(F)(F)F)ccc2O1 | inactive | inactive | inactive
C[C@H]1CN([C@@H](C)CO)C(=O)c2cc(NC(=O)C3CC3)ccc2O[C@@H]1CN(C)Cc1ccc(Oc2ccccc2)cc1 | inactive | inactive | inactive
CC(C)NC(=O)Nc1cccc2c1O[C@H](CN(C)S(=O)(=O)c1ccc(F)cc1)[C@H](C)CN([C@H](C)CO)C2=O | inactive | inactive | inactive
S=C1NCN(C2CCCC2)CN1 | inactive | inactive | inactive
C[C@@H]1CCCCO[C@@H](CN(C)C(=O)Nc2ccc(F)cc2)[C@H](C)CN([C@H](C)CO)C(=O)c2cc(NC(=O)Nc3cccc4ccccc34)ccc2O1 | inactive | inactive | inactive
